# Measurements reported in publication PMC12136788.
# The other results are listed elsewhere or left out.
# T1: UNK ZnF1-3 (human, UniProt Q9C0B0 31-174)
# T1 sequence: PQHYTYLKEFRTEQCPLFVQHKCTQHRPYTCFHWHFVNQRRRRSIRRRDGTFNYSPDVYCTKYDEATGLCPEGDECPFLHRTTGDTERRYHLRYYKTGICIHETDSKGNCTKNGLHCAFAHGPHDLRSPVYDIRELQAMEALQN
# B1: chr16:3748964:3748965:+_ENSMUSG00000022529_ENSMUST00000023176|mus_mus|motif|central (ssRNA)
# RNA: GGGAGUUCUACAGUCCGACGAUCUUCACCACACUCUACAUCCAUACACAGCUUUUCUGCUGCAUGUAUUCUCUGGUGCCGGAUUAGGUUUGAGUUAUUAGAAAAGUUCUUGCCACACAAGGCACACAAAUGGAGUUUCUUGGGCAACAGAGGAUUGAGCAUCA
# B2: chr19:42880530:42880531:+_ENSG00000105429_ENST00000334370|hu_mus|FALSE|FALSE (ssRNA)
# RNA: GGGAGUUCUACAGUCCGACGAUCGCUAGGAAAGGCUCAGAGCGGCGGAAGGCAGGAGGAGGGAGCCCAGCUGGCUUCCAUGCAGGUGCUGGGCCUGCAGGGUCUGGAGGGAAGCAGACAGUGACCUUGGCAAAGGGGCGGCUGCAACAGAGGAUUGAGCAUCA
# B3: 43810863_43810983_1618_3pUTR_ENSMUSG00000040018_ENSMUST00000045562|mouse|control|control (ssRNA)
# RNA: GGGAGUUCUACAGUCCGACGAUCUCGAGUAGCUCCACAGGGGCACGUGUUCCUGAAUCUGUCACUGUCACCAGAAGCCUGACUAGUGGGCAGGACAUAGAAACCAAGAUCUAAGAAGUCAGCCCGCCUCUUAUGAAGCAGCAACAACAGAGGAUUGAGCAUCA
# B4: chr7:116544294:116544295:+_ENSG00000198898_ENST00000458284|hu_mus|FALSE|FALSE (ssRNA)
# RNA: GGGAGUUCUACAGUCCGACGAUCUGCUUCGUAGGGCCUUGGAUCAGUUGCUUCCUUUCUUAAAUGAUCAAAUUUGAAACAGAUUCUGUUUUUUGGAUCCAAAAAUUUUCCAUUUCCCAAGUCUCCAUGUUCUGUUAUCAAAACCAACAGAGGAUUGAGCAUCA
# B5: 71553991_71554111_1996_CDS_ENSMUSG00000053470_ENSMUST00000065509|mouse|control|control (ssRNA)
# RNA: GGGAGUUCUACAGUCCGACGAUCAAUAUUGGCCAGGAUAUAUUUUGCUGUGUCCAAAUCAGUCCCCACAACAUUUUUGGUCAAAGGCAGCCACAAGCCAAUCGCUUCACUGUCAUACUUGUUUGGUGUUAAGAAGCCUUCUACCAACAGAGGAUUGAGCAUCA
# B6: chr17:65740002:65740003:+_ENSG00000130935_ENST00000581375|hu_hu|hu_hu_hu_mus_False|8_88 (ssRNA)
# RNA: GGGAGUUCUACAGUCCGACGAUCAACAAAUCUUUCUUCCCUGGACGCAAGAGUUCAUUCAUAUUAAAAAAAAUAUAUAUCCAUCAAGUUAGGUGUGGUGGCCACACCUUUACUCCCAGCACUUUGGGAAUAUAAUCUCUGAGUCAACAGAGGAUUGAGCAUCA
# B7: 115002338_115004872_336_CDS_ENSG00000130177_ENST00000356221|human|control|control (ssRNA)
# RNA: GGGAGUUCUACAGUCCGACGAUCUUCCAUGUCAAGAACAUCAAGGGCCUGCUGGUGCUCUUUUGCAGCAUAAUGGCACCUAGCUGCAAGGUAACGACAUGCUUCAUACAAUUUGUCCAGUUUUCGUGACCGAAGUGCAUGGGCCAACAGAGGAUUGAGCAUCA
# B8: chr16:94664741:94664742:+_ENSMUSG00000040785_ENSMUST00000117648|mus_hu|mus_mus_mus_hu_False|8_88 (ssRNA)
# RNA: GGGAGUUCUACAGUCCGACGAUCUGGUACUGAUCUUGGUAGCUGAUACUCAGAAGAAAGGCUGGCCAAGGGUGUAUAUAUGCUGGUGUACUGGGGCAAACCUGGUAACACGUUUAUGUAUGCUGGCCGCUGGGUGAUGAUAUCCAACAGAGGAUUGAGCAUCA
# B9: chr2:198351390:198351391:-_ENSG00000144381_ENST00000345042|hu_hu|hu_hu_hu_mus_False|28_38 (ssRNA)
# RNA: GGGAGUUCUACAGUCCGACGAUCUCAUUCCCACCCUCCACAGAAAGGCUGCUUCUGAACUCUCAUGUGGUGACACAGCGCUACAGUCCUGAUGCUCACAGAAUAGUAGUAAAAAUGCAGUGAUUUAAGUUGAAAGCAGGACACCAACAGAGGAUUGAGCAUCA
# B10: chr22:19452774:19452775:-_ENSG00000070010_ENST00000399523|hu_hu|hu_hu_hu_mus_False|1_78 (ssRNA)
# RNA: GGGAGUUCUACAGUCCGACGAUCCUUCUCAUUGUAGUUGAUAGCAAUCACAUCUCCGGUGGUCAGACAGGCGAAGUUUCUCAAUGCAUUUUCUAAUACCGCUUUAGGGUUGGUAAUAUCCAGGAAGUCUGGGCUCUGAGGUUGCAACAGAGGAUUGAGCAUCA
# B11: chr1:39494564:39494565:+_ENSG00000168653_ENST00000372967|hu_hu|hu_hu_hu_mus_True|58_78 (ssRNA)
# RNA: GGGAGUUCUACAGUCCGACGAUCAUGCAUUCGCCUCAUCGUUUUGUACCGAAGCAAACACUCUACGAAGUCAUCGAAUUCUAUCUUGCACUCCUUUUUCGCCCGGGUCCCACCGAUCCCGUGUGCACACUCUAUCCACUCUUUCAACAGAGGAUUGAGCAUCA
# B12: 140292093_140292213_7305_3pUTR_ENSMUSG00000031285_ENSMUST00000033642|mouse|control|control (ssRNA)
# RNA: GGGAGUUCUACAGUCCGACGAUCUUAAACAAAUUGUUCCUGCCCACCCCCAUCUCCACUAAGCCCAACCAAAUGACAGGAACAAUUACCUGUGGUCUCUCAUGACAUUAUAUUGCAGCUUUUCGAAGCUAUGAGCAAAUUUAACAACAGAGGAUUGAGCAUCA
# B13: chr9:120860063:120860064:+_ENSMUSG00000006932_ENSMUST00000007130|mus_mus|FALSE|FALSE (ssRNA)
# RNA: GGGAGUUCUACAGUCCGACGAUCCUGCAUGCCCUCAUCUAGCGUCUCAGGGAACAUGGCAGCUCGGACCCUCUGAGCCCUAGUCAUUGCAUACUGCCCGUCAAUAUCAGCUACUUGCUCUUGCGUGAAGGACUGGGAAAAGCCCAACAGAGGAUUGAGCAUCA
# B14: 123982989_123983109_2230_CDS_ENSG00000168916_ENST00000504926|human|control|control (ssRNA)
# RNA: GGGAGUUCUACAGUCCGACGAUCCUUCAUUCCCUGCGUGCUCCCACUAUUUCCAGCUGCAGGGGCACCGACCUGCCCAGGGUGCAUGUAACUUGGAGAAUAAUAAGGAUCAUAGCUGUGGUAAUAGGGAGAAUGGGACUCUUUCAACAGAGGAUUGAGCAUCA
# B15: chr11:97371553:97371554:-_ENSMUSG00000038453_ENSMUST00000107596|mus_mus|motif|central (ssRNA)
# RNA: GGGAGUUCUACAGUCCGACGAUCCACAAUCCCAUACAAAUUCCUUCCAGGACACACUCGCGCAGUAACCAAAUUGAAGAACGGGAACUACGCAAAGCCCACGGGGGCCUUGCCUGAGCUCGUGGGGCAGCCCCUGCAUGAAUACAACAGAGGAUUGAGCAUCA
# B16: chr17:7144716:7144717:-_ENSG00000170296_ENST00000577035|hu_hu|FALSE|FALSE (ssRNA)
# RNA: GGGAGUUCUACAGUCCGACGAUCCUGGUACAGCUGACCCAUUGUGGCACUGGUGGGUGGAAUGACAUUGUUGACAAAGAAAAACAAGGCAUCCUCAGCUCGGAGAUGAAUUCGCUUCCGGAUCAAGAAGUAGAACUGACCAACCAACAGAGGAUUGAGCAUCA
# B17: 12959060_12959180_2252_3pUTR_ENSG00000187079_ENST00000361905|human|control|control (ssRNA)
# RNA: GGGAGUUCUACAGUCCGACGAUCAAAAAGAGAACUAAAUACAUUUGUAUAAAGGCUGUAAAUGUCCCAUGGCAAAUGCUCUGUCUCAAUAUUUUCUACCACAAUUAGAAACAGGGCUCUGCAGAGAGAGACUUGGGUUGUUCACAACAGAGGAUUGAGCAUCA
# B18: chr7:148679106:148679107:+_ENSMUSG00000025511_ENSMUST00000117634|mus_mus|motif|central (ssRNA)
# RNA: GGGAGUUCUACAGUCCGACGAUCCCUGCCUGGAGCACCAAGAUCAUCGUGGGCCUUGAGCAGACUGGGCCUGCCCCCAACCGGGCAACCAUGCAAGGCUGGGAACCCCAUCCUGUGUGAACACUGGAAGGUAUAUAUGGAUAUCAACAGAGGAUUGAGCAUCA
# B19: chr14:66974463:66974464:+_ENSMUSG00000022044_ENSMUST00000074523|mus_hu|mus_mus_mus_hu_False|28_48 (ssRNA)
# RNA: GGGAGUUCUACAGUCCGACGAUCUUGUAGGACGACUUAUUCAGGGGAUCGGCCAGGAAGCAGGAGCAGAACAAGGACACCAGCGGGAGUUCCUUCAUCUUCUCUUUAUAGGCUGCAAGGGUCAUGUUUCUGGGAUCUGGUGGCCAACAGAGGAUUGAGCAUCA
# B20: chr12:121221538:121221539:-_ENSG00000157837_ENST00000353487|hu_hu|FALSE|FALSE (ssRNA)
# RNA: GGGAGUUCUACAGUCCGACGAUCAGGUGAGCAGGGUCUUGUUAAAUACUGGCACAUCGGGAGGAGAAGAAAAGCAAAAGCUAUCGUUGCAAGAACUGCUGUACAUAUUGUAAAAACUACUUGAACUGAGUCAAAGAAGAAGAACAACAGAGGAUUGAGCAUCA
# B21: 153790636_153791375_792_3pUTR_ENSG00000143614_ENST00000368655|human|control|control (ssRNA)
# RNA: GGGAGUUCUACAGUCCGACGAUCACAACUGGAGUCUUCUGGACCACAUUCUCUUUCUGUAGCUGACUCUGUCUCAGUUUCUUUAACAGGACCAGUCGGGCUUCUUCCAAUCGUAGCUCAUCCCUCAGCUGCUUGAUAAGCUGCCAACAGAGGAUUGAGCAUCA
# B22: chr1:46159212:46159213:+_ENSG00000159596_ENST00000372025|hu_mus|hu_hu_hu_mus_True|1_88 (ssRNA)
# RNA: GGGAGUUCUACAGUCCGACGAUCUCUGAUCCCUCCCAAGAAAGCUAGGAAACUGGCUCCAUAAGCCAUCUGAGUGAAAGCUAGGACGGGGAUAUAAGACUUUGUUAUUACCAUGAGAAGUGGGGGAGCAGUAAAGGGGAUUAGCAACAGAGGAUUGAGCAUCA
# Biological target: T1, UNK ZnF1-3
# Assay: nsRBNS (natural sequence RNA bind-n-seq); RBNS binding buffer (assumed for nsRBNS): 25 mM Tris pH 7.5, 150 mM KCl, 3 mM MgCl2, 0.01% Triton X-100, 500 ug/ml BSA, 20 U/ml SUPERase-In, 4 C; UNK is unkempt and MSI1 is Musashi-1; names of the RNAs are library labels; protein concentration not given here; high values mean tight binding
row,Binder,binding signal
1,B1,0.884 enrichment R
2,B2,1.83 enrichment R
3,B3,0.905 enrichment R
4,B4,0.848 enrichment R
5,B5,0.952 enrichment R
6,B6,0.968 enrichment R
7,B7,0.887 enrichment R
8,B8,1.07 enrichment R
9,B9,1.71 enrichment R
10,B10,0.917 enrichment R
11,B11,0.663 enrichment R
12,B12,1.16 enrichment R
13,B13,1.05 enrichment R
14,B14,1.38 enrichment R
15,B15,1.09 enrichment R
16,B16,1.77 enrichment R
17,B17,1.02 enrichment R
18,B18,1.11 enrichment R
19,B19,2.35 enrichment R
20,B20,2.43 enrichment R
21,B21,0.378 enrichment R
22,B22,1.59 enrichment R
